Measured values from PubChem BioAssay AID485341 (National Center for Advancing Translational Sciences (NCATS), 2010).
In all, about 330,000 compounds went through this assay and about 1,700 (0.52%) were called active. Calls come from the whole dose curve; as a rule, active = well fitted inhibition curve with a large enough effect; inconclusive = small, poorly fitted or top-dose-only effect; inactive = no such curve, though single readings can be large or run the other way. A structure can be active in one record and inactive in another. A number of entries come with more than one value. The list is limited to them. There may be further records. Results that share an entry are repeated measurements across runs, samples, wells, individuals or studies. A tag in brackets gives the origin of a value. Letters hold for one entry only.

molecular target: Beta-lactamase (Escherichia coli (strain K12)) (UniProt P00811); test: qHTS Inhibitors of AmpC Beta-Lactamase (assay without detergent); settings: AmpC nitrocefin hydrolysis, absorbance 480 nm, 0.0001% Triton; series mostly up to 57.1 µM; note: nearly all actives have a fitted effect of over 20% in size
UniProt P00811, sequence (P00811 whole entry, looked up): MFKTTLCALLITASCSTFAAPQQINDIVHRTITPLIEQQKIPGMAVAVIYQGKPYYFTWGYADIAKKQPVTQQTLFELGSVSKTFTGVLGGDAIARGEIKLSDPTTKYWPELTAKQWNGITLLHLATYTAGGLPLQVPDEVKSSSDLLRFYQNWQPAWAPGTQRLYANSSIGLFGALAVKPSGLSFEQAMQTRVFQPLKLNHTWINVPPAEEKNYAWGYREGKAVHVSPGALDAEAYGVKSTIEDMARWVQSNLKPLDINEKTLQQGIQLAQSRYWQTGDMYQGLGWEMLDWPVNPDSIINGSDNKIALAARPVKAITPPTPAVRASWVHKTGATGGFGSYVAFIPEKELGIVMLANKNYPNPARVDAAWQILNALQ
Experimental: NIH Molecular Libraries Probe Production Network [MLPCN] NIH Chemical Genomics Center [NCGC] Assay Provider: Professor Brian Shoichet, UCSF Assay Overview: This aggregation profiling approach exploits the sensitivity of aggregate formation to detergent. Inhibition of b-lactamase is measured in the presence and absence of 0.01% Triton X-100. This particular assay had the prescence of 0.01% Triton X-100. See Pubchem assay "Promiscuous and Specific Inhibitors of AmpC Beta-Lactamase (assay without detergent)" for related screen. Compounds that inhibit only in the absence of detergent are considered likely promiscuous aggregators. A screen of 1,030 compounds was performed in Brian Shoichet's lab in 96-well format. AmpC activity was measured by following the absorbance at 480 nm. Nitrocefin is a chromogenic substrate: while nitrocefin is yellow (lmax 390 nm), the product of its hydrolysis is red (lmax 486 nm, 17,000 M-1). AmpC beta lactamase was provided by Shoichet Lab, UCSF.
Buffer: 20 mM phosphate buffer, pH 7.0 Triton X-100: No Detergent screen: 0.0001%, Detergent screen: 0.01%. Reagents/Controls: Buffer in columns 3 and 4 as negative control (no enzyme). 5.3 nM AmpC in columns 1, 2, 5-48. […] The plates were immediately transferred to and read every 20 seconds for 4 min on ViewLux (Perkin-Elmer) High-throughput CCD imager using 480 nm absorbance protocol. […]
Potency is the fitted concentration of half-maximal effect.

Compound | Potency
CO/N=C(\C(=O)N[C@@H]1C(=O)N2C(C(=O)O)=C(COC(C)=O)CS[C@H]12)c1csc(N)n1 (stereo in doubt) | inactive [sample A] and inactive [sample B] and active: 14.1 µM [sample C]
